Data set [1] deals with the molecule itself. The data set can be described thus: cross-linking.
Data set [2] deals with the molecule itself. The data set can be described thus: cross-linking. This is another data set of the same source.

Experimental findings from publication PMC5531264 (Biochemistry, 2016) are described below.

B1: Sterile Alpha Motif and HD Domain Protein 1 (SAMHD1), wild type, full length, human (enzyme)
chain: not shown
In the case of B1, the “stoichiometry N” value in the data set “cross-linking [1]” worked out at 4.

B2: SAMHD1 Δ[…] (truncated form lacking the C-terminal […]) (domain or fragment)
chain: not shown
With B2, the binding result in the data set “cross-linking [2]” is given as “binds”.
